From patent US9371374

Experiments:
Assay in all cases: EIA, captured mAb
[1] = molecular target: biotinylated HCV core peptide […] (Peptide 1) (HCV-1)
[2] = molecular target: biotinylated HCV core peptide […] (Peptide 3) (HCV-1)
[3] = molecular target: biotinylated HCV core peptide […] (Peptide 2) (HCV-1)

B1: HCV 208A-334 (antibody, V domains shown)
VH: [about 120 residues skipped]
VL: DIVLTQSPASLAVSLGQRATISCRASQSVSTSRYSYMHWYQQKPGQPPKLLIKYASNLESGVPARFSGSGSGTDFTLNIHPVAEEDTAAYYCQHSWGFPFTFGSGTKLEIKR
B1 showed a Reactivity (OD492) [1] of 0.05 OD, a Reactivity (OD492) [2] of 0.05 OD and a Reactivity (OD492) [3] of 3.07 OD.
